The results in this text go back to PMC4336329 (PLoS ONE, 2015).

Screen size: about 310,000 compounds; about 2,200 (0.71%) showed an effect of 50% or more. Effects have a minus sign here. Some of the results follow.

For the assay, the target named is human ether-à-go-go-related gene (hERG) potassium channel (human, UniProt Q12809). The experiment in a line: primary screen, population patch clamp on CHO cells stably expressing hERG.
human ether-à-go-go-related gene (hERG) potassium channel, sequence (Q12809 whole entry, looked up): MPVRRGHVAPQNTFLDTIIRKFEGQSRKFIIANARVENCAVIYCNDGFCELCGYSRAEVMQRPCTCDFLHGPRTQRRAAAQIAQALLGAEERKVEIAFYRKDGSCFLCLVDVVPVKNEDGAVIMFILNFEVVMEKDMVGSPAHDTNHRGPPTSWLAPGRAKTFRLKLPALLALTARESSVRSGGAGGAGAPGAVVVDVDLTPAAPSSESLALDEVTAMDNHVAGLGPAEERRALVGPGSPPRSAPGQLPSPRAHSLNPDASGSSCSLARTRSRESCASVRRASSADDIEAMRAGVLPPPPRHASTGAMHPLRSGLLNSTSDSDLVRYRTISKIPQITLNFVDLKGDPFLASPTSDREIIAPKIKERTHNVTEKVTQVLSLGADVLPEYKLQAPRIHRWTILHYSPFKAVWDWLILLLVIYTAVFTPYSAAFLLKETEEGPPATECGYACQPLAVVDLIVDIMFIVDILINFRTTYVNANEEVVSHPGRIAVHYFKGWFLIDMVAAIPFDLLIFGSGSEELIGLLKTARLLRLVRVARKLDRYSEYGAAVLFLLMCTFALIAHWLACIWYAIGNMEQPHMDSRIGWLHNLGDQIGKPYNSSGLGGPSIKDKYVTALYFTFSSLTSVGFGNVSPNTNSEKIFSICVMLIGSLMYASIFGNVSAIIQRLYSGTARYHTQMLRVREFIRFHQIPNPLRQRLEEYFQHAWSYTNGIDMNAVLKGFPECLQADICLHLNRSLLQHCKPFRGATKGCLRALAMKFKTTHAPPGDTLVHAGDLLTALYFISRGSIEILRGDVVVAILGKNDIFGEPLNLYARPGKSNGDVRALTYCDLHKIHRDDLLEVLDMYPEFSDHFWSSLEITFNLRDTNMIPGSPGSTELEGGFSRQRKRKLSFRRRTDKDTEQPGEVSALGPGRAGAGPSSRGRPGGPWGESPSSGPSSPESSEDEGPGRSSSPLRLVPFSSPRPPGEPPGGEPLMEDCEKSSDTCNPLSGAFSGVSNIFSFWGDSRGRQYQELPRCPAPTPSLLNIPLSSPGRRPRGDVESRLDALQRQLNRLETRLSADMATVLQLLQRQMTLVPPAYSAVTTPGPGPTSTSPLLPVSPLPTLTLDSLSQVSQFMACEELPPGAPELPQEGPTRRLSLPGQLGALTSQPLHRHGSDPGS
As to `COc1ccc(/C=c2\s/c(=C(/C#N)C(=O)NCc3ccco3)n(-c3ccccc3)c2=O)cc1`, the “hERG current change (%, negative = inhibition) at 1uM” value is reported as 8.58%.

For `CCOC(=O)Nc1ccc2c(c1)N(C(=O)CCCl)c1ccccc1[S@]2=O`, the “hERG current change (%, negative = inhibition) at 1uM” value amounted to 16.1%.

`CC1Cc2ccccc2N1CC(=O)c1c(N)n(Cc2ccccc2)c(=O)n(C)c1=O` (centres unmarked): the “hERG current change (%, negative = inhibition) at 1uM” value was -11.7%.

Take `COc1ccc(N2C(=O)CC(N3CCC(O)(c4cccc(C(F)(F)F)c4)CC3)C2=O)cc1` (centres unmarked): the “hERG current change (%, negative = inhibition) at 1uM” value is recorded as 3.91%.

For the compound `CCN(CC)CCNc1nc(SC)nc2sc3c(c12)CCN(C)C3`, the “hERG current change (%, negative = inhibition) at 1uM” value worked out at 13.2%.

Turning to `Cc1cc(C(=O)Nc2ccccc2N2CCCCC2)no1`, the “hERG current change (%, negative = inhibition) at 1uM” value came out at 14.4%.

Take `COc1ccc(C(=O)Nc2cc(C(F)(F)F)ccc2Cl)cc1OC`: the “hERG current change (%, negative = inhibition) at 1uM” value is reported as 0.0432%.

On to `O=C(OCc1cc([N+](=O)[O-])cc2c1OCOC2)c1ccccn1`, for which the “hERG current change (%, negative = inhibition) at 1uM” value was determined as 19.5%.

For the compound `O=C(Nc1ccccc1)Nc1csc2ccccc12`, the “hERG current change (%, negative = inhibition) at 1uM” value is 7.36%.

On to `CCN1C(=O)/C(=C\c2cccc(OC(=O)c3ccco3)c2)SC1=S`, for which the “hERG current change (%, negative = inhibition) at 1uM” value was 12.7%.

On to `Cc1nc(CNS(=O)(=O)c2cc(C)c(C)cc2C)cs1`, for which the “hERG current change (%, negative = inhibition) at 1uM” value is given as -4.05%.

In the case of `COc1ccc(Cl)cc1NC(=O)CN(C)CC(=O)Nc1ccccc1C(F)(F)F`, the “hERG current change (%, negative = inhibition) at 1uM” value was 5.76%.

Regarding `O=C(C1CCN(S(=O)(=O)c2cccnc2)CC1)N1CCCCC1`, the “hERG current change (%, negative = inhibition) at 1uM” value turned out to be 8.63%.

Take `COC(=O)c1c(NC(NC(=O)C(C)C)C(Cl)(Cl)Cl)sc2c1CCC2` (centres unmarked): the “hERG current change (%, negative = inhibition) at 1uM” value is recorded as 6.7%.

For `COc1ccc(NC(=O)c2ccco2)cc1NC(=O)c1ccccc1[N+](=O)[O-]`, the “hERG current change (%, negative = inhibition) at 1uM” value turned out to be 8.28%.

With `CC1=NN(C(C)C)C(=O)C1`, the “hERG current change (%, negative = inhibition) at 1uM” value came out at 0.0595%.

In the case of `CSc1ccc(S(=O)(=O)Nc2cccc(F)c2)cc1`, the “hERG current change (%, negative = inhibition) at 1uM” value is 13.3%.

`CC(C)COC(=O)Cc1c(O)c2ccccc2[nH]c1=O`: the “hERG current change (%, negative = inhibition) at 1uM” value came to 14.3%.

For `O=C(CC1C(=O)NCCN1Cc1ccc(-c2ccccc2)cc1)NC1CCC1` (centres unmarked), the “hERG current change (%, negative = inhibition) at 1uM” value turned out to be 10.4%.

For the compound `Cc1ncc(CSCC(=O)Nc2cc(C(F)(F)F)ccc2Cl)c(CO)c1O`, the “hERG current change (%, negative = inhibition) at 1uM” value is 10.1%.

For `O=C1CC(NS(=O)(=O)c2ccc3ccccc3c2)CN1c1ccccc1` (centres unmarked), the “hERG current change (%, negative = inhibition) at 1uM” value was found to be 8.86%.

`O=C(CSc1nc(=O)n(CCCN2CCOCC2)c2c1CCC2)Nc1ccc(F)cc1`: the “hERG current change (%, negative = inhibition) at 1uM” value is recorded as -2.68%.

As to `COc1ccc(C2=NN(C(C)=O)C(c3ccccc3)C2)cc1` (centres unmarked), the “hERG current change (%, negative = inhibition) at 1uM” value is recorded as 10.1%.

Turning to `O=C(OCC(=O)N(CCc1ccccc1)Cc1ccccc1)c1cccc(O)c1`, the “hERG current change (%, negative = inhibition) at 1uM” value was 61.1%.

In the case of `Cc1cc(=O)[nH]c(NN=C2CCC(C(C)(C)C)CC2)n1` (centres unmarked), the “hERG current change (%, negative = inhibition) at 1uM” value turned out to be 13.5%.

Turning to `CCOc1cccc2sc(N3CCN(C(=O)c4ccc5ncsc5c4)CC3)nc12`, the “hERG current change (%, negative = inhibition) at 1uM” value was found to be 10.9%.

Consider `COc1ccc(-c2cc(C(=O)NCc3ccco3)c3ccccc3n2)cc1`, for which the “hERG current change (%, negative = inhibition) at 1uM” value amounted to 15.6%.

Take `Cc1cc(C)c(C(=O)COC(=O)c2cc([N+](=O)[O-])ccc2N2CCOCC2)cc1C`: the “hERG current change (%, negative = inhibition) at 1uM” value was 12.2%.

Consider `Cn1c(SCc2ccc(Cl)cc2)nnc1-c1ccc2nonc2c1`, for which the “hERG current change (%, negative = inhibition) at 1uM” value is on record as 10.6%.

Turning to `CN(C)C(=S)Nc1cccc(F)c1`, the “hERG current change (%, negative = inhibition) at 1uM” value is 8.99%.

Take `COc1ccc(NC(=O)c2c(C)noc2C(C)C)cc1S(=O)(=O)N1CCCCC1`: the “hERG current change (%, negative = inhibition) at 1uM” value is listed as 0.541%.

For the compound `O=C(CSc1nc(-c2ccccc2)cs1)NCc1ccco1`, the “hERG current change (%, negative = inhibition) at 1uM” value is given as -1.15%.

Turning to `Cc1noc(C)c1S(=O)(=O)N1CCC(C(=O)N2CCN(C3CCCC3)CC2)CC1`, the “hERG current change (%, negative = inhibition) at 1uM” value is 12%.

Regarding `CC(C)C(NC(=O)C1CCCCC1)C(=O)Nc1ccc2c(c1)OCCO2` (centres unmarked), the “hERG current change (%, negative = inhibition) at 1uM” value is 0.124%.

Consider `CC1CN(C(=O)c2ccc(S(=O)(=O)Nc3cccc(C(F)(F)F)c3)cc2)CC(C)O1` (centres unmarked), for which the “hERG current change (%, negative = inhibition) at 1uM” value is 3.54%.

As for `COc1ccc2nc(S(=O)Cc3ncc(C)c(OC)c3C)[nH]c2c1` (centres unmarked), the “hERG current change (%, negative = inhibition) at 1uM” value was determined as 18.1%.

Consider `COC(C(=O)Nc1ccnn1C1CCN(Cc2ccc(CO)o2)CC1)c1ccccc1` (centres unmarked), for which the “hERG current change (%, negative = inhibition) at 1uM” value was found to be 9.7%.

Consider `CCn1c(O)c2ccc(C(=O)N=NC(=O)c3ccccc3)cc2c1O`, for which the “hERG current change (%, negative = inhibition) at 1uM” value worked out at 8.57%.

As to `CCC(C)n1cnc2c(c1=O)c1nc3ccccc3nc1n2Cc1ccccc1OC` (centres unmarked), the “hERG current change (%, negative = inhibition) at 1uM” value stood at 14.7%.

`CCNc1nc(Cl)nc(NNC(=O)C(C)Oc2ccccc2)n1` (centres unmarked): the “hERG current change (%, negative = inhibition) at 1uM” value is 11.6%.

As to `COc1ccc(CCC2(C)NC(=O)N(C(C)C(=O)Nc3ccccc3F)C2=O)cc1` (centres unmarked), the “hERG current change (%, negative = inhibition) at 1uM” value is -19.4%.

Take `Cc1cnc(C(=O)OCC(=O)N2CCc3ccccc3C2)cn1`: the “hERG current change (%, negative = inhibition) at 1uM” value is recorded as 11.7%.

As for `Cc1ccc(C)c(NC(=O)C[n+]2ccccc2)c1.[Cl-]`, the “hERG current change (%, negative = inhibition) at 1uM” value was 10.9%.

With `N#CC1=C(N)Oc2cc(N)ccc2C1c1cccc(Br)c1` (centres unmarked), the “hERG current change (%, negative = inhibition) at 1uM” value is given as 3.1%.
